Source: publication PMC4336329 (PLoS ONE, 2015)
The whole screen tested about 310,000 compounds, of which about 2,200 (0.71%) showed an effect of 50% or more. The effect is printed as a negative number. The list shows a part of the results. Where a SMILES comes first, the peptide text is derived from it. The star is where a group is joined. Cbz = O=C(OCc1ccccc1)*; OtBu = CC(C)(C)O*; tBu = CC(C)(C)*

target: human ether-à-go-go-related gene (hERG) potassium channel (human, UniProt Q12809); assay: primary screen, population patch clamp on CHO cells stably expressing hERG
Sequence (Q12809 whole entry, looked up): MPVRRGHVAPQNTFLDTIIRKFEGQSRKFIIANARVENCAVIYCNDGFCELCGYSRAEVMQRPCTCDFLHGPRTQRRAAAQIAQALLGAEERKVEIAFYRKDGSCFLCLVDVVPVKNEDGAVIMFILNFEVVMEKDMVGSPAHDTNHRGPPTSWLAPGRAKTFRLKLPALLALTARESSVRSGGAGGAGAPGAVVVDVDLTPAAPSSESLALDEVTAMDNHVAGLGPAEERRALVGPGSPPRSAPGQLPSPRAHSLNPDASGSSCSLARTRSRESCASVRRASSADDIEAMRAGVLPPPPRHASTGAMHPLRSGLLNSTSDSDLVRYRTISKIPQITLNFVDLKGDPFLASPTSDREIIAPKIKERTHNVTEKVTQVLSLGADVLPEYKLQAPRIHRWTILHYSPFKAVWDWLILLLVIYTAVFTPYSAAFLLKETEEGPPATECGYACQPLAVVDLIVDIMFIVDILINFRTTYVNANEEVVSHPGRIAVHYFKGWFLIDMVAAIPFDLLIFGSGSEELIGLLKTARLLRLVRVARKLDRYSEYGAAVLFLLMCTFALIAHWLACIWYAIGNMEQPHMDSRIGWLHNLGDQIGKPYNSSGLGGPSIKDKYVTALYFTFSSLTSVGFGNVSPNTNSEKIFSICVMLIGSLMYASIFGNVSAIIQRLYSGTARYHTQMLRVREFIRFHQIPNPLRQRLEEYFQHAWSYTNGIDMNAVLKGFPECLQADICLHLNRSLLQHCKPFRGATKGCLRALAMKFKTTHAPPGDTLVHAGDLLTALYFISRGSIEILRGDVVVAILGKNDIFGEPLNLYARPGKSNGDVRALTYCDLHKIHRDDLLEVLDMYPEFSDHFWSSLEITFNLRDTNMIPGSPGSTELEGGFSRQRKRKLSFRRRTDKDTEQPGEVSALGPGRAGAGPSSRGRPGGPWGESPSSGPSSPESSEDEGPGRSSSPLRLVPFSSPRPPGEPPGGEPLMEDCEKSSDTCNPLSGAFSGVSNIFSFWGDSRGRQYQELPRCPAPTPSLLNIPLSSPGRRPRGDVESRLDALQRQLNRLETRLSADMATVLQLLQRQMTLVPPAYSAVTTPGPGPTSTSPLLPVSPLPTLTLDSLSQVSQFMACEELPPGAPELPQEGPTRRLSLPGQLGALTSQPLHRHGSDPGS

Compound | hERG current change (%, negative = inhibition) at 1uM [%]
COc1cccc(-c2nc(-c3ccc(NC(=O)c4cccnc4)cc3)no2)c1 | 4.64
O=S(=O)(c1ccccc1F)N1CCN(Cc2cc3c(cc2O)OCO3)CC1 | -10.9
CN(C)S(=O)(=O)c1cc(NC(=O)c2cc(=O)[nH]c3ccccc23)ccc1Cl | 7.32
COCCNC(=O)CN(c1cc(Cl)ccc1OC)S(=O)(=O)c1ccc(C)c([N+](=O)[O-])c1 | 17
CCC(=O)/C=C1/Sc2ccc(OC)cc2N1CCO | 14.6
Cc1cc(C)c(S(=O)(=O)Nc2nnc(C(C)C)s2)c(C)c1 | 16
Cc1ccc(C(c2nnnn2C(C)(C)C)N(Cc2ccco2)Cc2cccs2)cc1 (stereo not shown) | 6.63
CC1CC2=C(NC(=S)NC2c2ccc(F)cc2)/C(=C/c2ccc(F)cc2)C1 (stereo not shown) | 2.93
CCOC(=O)c1c(N)n(Cc2ccco2)c2nc3ccccc3nc12 | -38.7
C=C(C)CSc1cc(C)c(C#N)c2nc3ccccc3n12 | 0.84
COC(=O)c1c(NC(=O)COC(=O)CCNS(=O)(=O)c2ccccc2)sc(C)c1C | 11.1
Nc1nc(SCC(=O)c2cccc([N+](=O)[O-])c2)n[nH]1 | 5.93
CC(NC(=O)OCc1ccccc1)C(=O)NCC(=O)NC(Cc1ccc(OC(C)(C)C)cc1)C(=O)OC(C)(C)C (stereo not drawn) (Cbz-Ala-Gly-Tyr(tBu)-OtBu; configuration not given here) | 1.74
O=C(CSc1nnc(CNC(=O)c2c(F)cccc2F)o1)NCc1ccccc1 | 8.94
CC12CCC(C(=O)N3CCCCCC3)(OC1=O)C2(C)C (stereo not shown) | 14.4
Cc1cccc(C)c1NC(=O)CNC(=O)CCNC(=O)c1ccco1 | 1.97
O=C(Cn1nnc2ccccc21)C1CC1 | 1.07
Cc1cc[n+](Cc2ccc([N+](=O)[O-])cc2)cc1.[Br-] | 5.5
Cc1cnc(C(=O)OCC(=O)c2ccc(F)cc2)cn1 | 13
CCOC(=O)CCC(NC(=O)c1ccc(NCN2C(=O)CCC2=O)cc1)C(=O)OCC (stereo not shown) | 7.89
COc1cc(/C=C/c2ccc3cccc(O)c3n2)cc(OC)c1OC | 10.8
COC(=O)c1ccccc1NC(=O)Nc1nnc(N2CCCCC2C)s1 (stereo not shown) | 10

Compound | hERG current change (%, negative = inhibition) at 1uM [%]
Cc1ccc(N(Cc2ccccc2)C(=O)c2ccc(F)c(S(=O)(=O)N3CCOCC3)c2)cc1 | -30.5
Nc1cc(=O)nc(SCC(=O)N(C2CCCCC2)C2CCCCC2)n1-c1ccccc1 | 16.3
Cc1ccc(C)c(OCc2cc(C(=O)NC3CCN(Cc4ccccc4)CC3)no2)c1 | 13.2
COCCOC(=O)C1=C(C)NC2(O)c3ccccc3C(=O)C12O (stereo not shown) | 12.2
O=C(c1c(F)cccc1Cl)N1CCN(c2ccccn2)CC1 | 10.5
O=C(CCCCCN1C(=O)[C@@H]2Cc3ccccc3CN2C1=O)NCCc1ccccc1 | -1.5
O=C(NCc1ccncc1)c1cc(C(=O)C2CC2)c[nH]1 | 12.5
N#C/C(=C\c1cccnc1)c1ccccc1[N+](=O)[O-] | 8.35
COc1ccc(C2(O)CCN(C(=O)Cc3cccnc3)CC2)cc1 | 7.45
COc1ccc(-c2csc(NC(=O)COc3ccc(N(C)S(=O)(=O)c4ccc(C)cc4)cc3)n2)cc1 | 5.15
Cc1cc2nnc(SCC(=O)NCc3ccco3)n2c2ccccc12 | 11.1
COc1ccc(NC2=CC(=O)N(C)C2=O)cc1 | 16.3
O=C(/C=C/c1ccccc1)NCCC1=CCCCC1 | 9.38
Cc1ccc(CNC(=O)c2ccc(NC(=O)CCS(=O)(=O)c3cccs3)cc2)cc1 | 10.5
Cl.O=C(CN1CCCC1)NCC1(c2ccccc2)CCOCC1 | 11.3
CCc1ccc(C(=O)OCC(=O)c2c(N)n(CC(C)C)c(=O)n(C)c2=O)cc1 | 10
COc1ccc(-c2cc(C(F)(F)F)nc(N3CCN(C)CC3)n2)cc1 | 7.78
O=C(c1cn(-c2ccccc2)nc1-c1ccc(Br)cc1)N1CCOCC1 | 8.27
O=C(COc1ccccc1)N1CCN(C(=O)c2cccs2)CC1 | 0.419
CSc1cc(-c2ccco2)oc1C(=O)c1ccco1 | 8.55
Cc1ccc(NC(=O)CCNS(=O)(=O)c2cccc3nonc23)cc1Cl | 14.8
O=C(N/N=C/C=C/c1ccccc1)c1cc(C2CC2)[nH]n1 | 0.149

Compound | hERG current change (%, negative = inhibition) at 1uM [%]
Cc1cccc2[nH]c(CN(C)C(=O)C3CCC(=O)N(C4CC4)C3)nc12 (stereo not shown) | 17.9
CC1CC(C)CN(S(=O)(=O)c2ccc(C(=O)N3CCCC3)cc2)C1 (stereo not shown) | -9.59
COc1ccc(/C=C(/C(=O)Nc2ccccc2C(=O)NC(C)C)c2ccccc2)cc1 | 9.53
S=C(NCc1ccco1)N/N=C/c1cccnc1 | 1.39
NC1=NC2(CCCCC2)N=C(Nc2ccc(F)cc2F)N1 | 5.43
O=C(O)C(=O)O.O=S(=O)(c1ccccc1C(F)(F)F)N1CCN(CC(O)COc2ccccc2F)CC1 (stereo not shown) | 18.3
Cc1ccccc1CN1CCCNC1=O | 3.46
COc1cc(/C=C2/C(=N)N3C=CSC3=NC2=O)ccc1OCCOc1ccc(NC(C)=O)cc1 | 12
CC(C)Oc1ccccc1/C=N/Nc1ccccc1[N+](=O)[O-] | 10.4
Cc1[nH]c2ccccc2c(=O)c1CN(C)Cc1ccccc1 | -7.79
CCCOc1ccc(C(=O)Nc2ccc3c(c2)OCO3)cc1 | 11.4
c1ccc2[nH]c(NC3=NCCC3)nc2c1 | 5.16
Cc1nc2c3ccccc3nc(SCC(=O)c3ccc(Cl)cc3)n2n1 | 8.88
Cc1cc(C)n(C(=O)CNC(=O)c2ccc(C(C)(C)C)cc2)n1 | 10.9
COc1ccc(C(=O)Nc2ccc(NC(C)=O)cc2)cc1S(=O)(=O)N(C)Cc1ccccc1 | 15.4
CC1CCc2c(sc3ncnc(NCCN4CCOCC4)c23)C1 (stereo not shown) | -13.1
O=C(CCNC(=O)c1ccccc1Cl)Nc1ccc(Br)c(C(F)(F)F)c1 | 16
Cc1c(Cl)cccc1S(=O)(=O)Nc1ccnn1C | 9.21
COCCn1c(=O)[nH]c2cc(C(=O)Nc3cc(C)cc(C)c3)ccc2c1=O | 14.8
Cc1ccnc2c(N3C(=O)C4C5c6ccccc6C(c6ccccc65)C4C3=O)cccc12 (stereo not shown) | 1.54
O=c1c(Cc2ccc(F)cc2)c(O)ccn1CC1CCCO1 (stereo not shown) | 14.2
COc1ccc(NC(=O)Cc2cccc3ccccc23)cc1 | 8.5

Compound | hERG current change (%, negative = inhibition) at 1uM [%]
CSc1oc(-c2ccco2)nc1S(=O)(=O)c1ccc(Br)cc1 | 7.95
Cl.N[C@@H](Cc1c[nH]c2ccccc12)c1nnc(SCc2ccccc2F)o1 | 5.36
O=C(Nc1ccc(F)c(Cl)c1)N1CCCCCC1 | 12.1
Cc1onc(-c2ccccc2Cl)c1-c1nc(-c2ccncc2)no1 | 12.6
O=S(=O)(c1ccccc1)c1nc(-c2ccco2)oc1NCCN1CCOCC1 | -13.2
CN(C)C(=O)c1cn(-c2ccccc2)c(=O)c2ccccc12 | 17.3
CCC(NC(=O)c1ccccc1NC(=O)c1ccc(C)cc1)C(=O)O (stereo not shown) | 2.01
CCN(CC)S(=O)(=O)c1cc(NC(=O)CCCOc2ccc(C(C)=O)cc2)ccc1C | 6.54
O=C(O)c1cccc(S(=O)(=O)N(Cc2ccccc2)c2ccccc2Cl)c1 | 12.5
Cc1ccc(-c2nc(NCc3cccnc3)c3ccccc3n2)cc1 | 17.6
NC(=O)c1ccccc1NC(=O)CC1(CC(=O)O)CCCC1 | 14.4
COc1ccccc1CNC(=O)C(=O)NCC1OCCN1S(=O)(=O)c1ccc(Br)cc1 (stereo not shown) | 7.67
O=C(/C=C/c1ccccc1)OCCN1C(=O)c2ccccc2C1=O | 7.18
Cc1ccc(OC(=O)CCS(=O)(=O)c2ccc(C)cc2)cc1 | 1.49
COc1ccc(Cl)cc1NC(=O)Cn1nnc(C(=O)NCCc2ccc(OC)c(OC)c2)c1N | 15.4
CCOc1ccc(N(CC(=O)Nc2ccccc2OC)S(=O)(=O)c2ccccc2)cc1 | 10.1
O=C(Cn1nc(-c2ccc(Cl)cc2)c2ccccc2c1=O)NCC1CCCO1 (stereo not shown) | 18
CCS(=O)(=O)NCCNc1ccc([N+](=O)[O-])cc1 | -7.35
O=C(O)COc1ccc(Cl)cc1CO | 7.15
COc1cccc(/C=C2\SC(=O)N(CCC(=O)N3CCCCC3CCO)C2=O)c1 (stereo not shown) | 7.99
CN(C)c1ccc(/C=N/NC(=O)CNC(=O)/C=C/c2ccccc2)cc1 | -1.73
C1=CC2=NC34CCCCC3CC3=C(CCCC3)N4C2=CC1=NC1CCCCC1 (stereo not shown) | -1.4
